# Laboratory results: PubChem BioAssay AID2100 (National Center for Advancing Translational Sciences (NCATS), 2009)
# The whole screen tested about 300,000 compounds, of which about 1,200 (0.4%) were called active. This list was built around the results that the source calls inconclusive (neither active nor inactive); the mix of calls is not that of the screen. Calls come from the whole dose curve; as a rule, active = well fitted inhibition curve with a large enough effect; inconclusive = small, poorly fitted or top-dose-only effect, or another doubt; inactive = no such curve, though single readings can be large or run the other way. A potency beside an inconclusive call is a rough fit, not a confirmed value.
# Biological target: Lysosomal alpha-glucosidase (Homo sapiens) (UniProt P10253)
# Assay: qHTS Assay for Inhibitors and Activators of Human alpha-Glucosidase Cleavage of Glycogen;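 for activity change, negative = inhibition: 0% = full enzyme reaction and -100% = no-enzyme basal signal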
# Conditions: recombinant GAA, glycogen substrate, Amplex Red glucose oxidase fluorescence; activity change, negative = inhibition: at 76.4 µM (top of the series) unless noted
# Method in brief: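 Recombinant human enzyme (4 nM); glycogen substrate; 37 C, 40 min, pH 5.0. Readout: coupled glucose oxidase/Amplex Red fluorescence.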
# Potency is the fitted concentration of half-maximal effect.
SMILES,Potency,"activity change, negative = inhibition"
COc1ccc(OC)c(C(c2c(C)[nH][nH]c2=O)c2c(C)[nH][nH]c2=O)c1,"inconclusive: 14.1 µM [inhibitor, partial curve]",
COc1cc(/C=N/N2CCCCC2)cc(OC)c1O,"inconclusive: 6.31 µM [inhibitor, partial curve]",
CCOC(=O)c1c(CSc2cccs2)n(C)c2cc(Br)c(O)c(CN(C)C)c12,"inconclusive: 14 µM [inhibitor, partial curve]",
C(=N\Nc1nc2ccccc2[nH]1)/c1ccccc1,"inconclusive: 15.7 µM [inhibitor, partial curve]",
CCn1c(C)cc(/C=C2/NC(=O)N(c3ccccc3)C2=O)c1C,"inconclusive: 31.6 µM [activator, partial curve]",
Cc1ccc(/C=N/Nc2ccc(Cl)nn2)cc1,inactive,
N#C/C(=C\c1ccc(-c2cc(Cl)ccc2Cl)o1)C(=O)Nc1ccccc1C(=O)O,inactive,
COc1cc(OC)cc(-c2cn[nH]c2N)c1,"inconclusive: 39.5 µM [inhibitor, single point]",
Cc1ccccc1OC1=NS(=O)(=O)c2ccccc21,inactive,
O=C(O)Cc1sc(N/N=C\c2ccncc2)nc1-c1ccccc1,"inconclusive: 22.4 µM [inhibitor, partial curve]",
Cc1nn(-c2ccccc2)c2c1C(c1ccco1)C(C#N)=C(N)O2 (stereo unspecified),"inconclusive: 50.1 µM [inhibitor, single point]",
Cc1nn(C)c(C(=O)NNC(=S)NC2CCCCC2)c1Br,"inconclusive: 31.4 µM [inhibitor, single point]",
Cc1ccc(NS(=O)(=O)c2ccccc2Cl)c2c1CC(C)(C)O2,inactive,
O=C(CCO)c1ccc(O)cc1,"inconclusive: 44.7 µM [inhibitor, single point]",
O=C(NNC(=S)Nc1ccccc1)C1CC1,"inconclusive: 44.7 µM [inhibitor, single point]",
O=[N+]([O-])c1ccc(O)c(/C=N/Nc2nn[nH]n2)c1,"inconclusive: 28 µM [inhibitor, partial curve]",
CCc1cccc2c(C(=O)COC(=O)/C=C/c3ccc(O)c(OC)c3)c[nH]c12,"inconclusive: 20 µM [inhibitor, partial curve]",
Cc1ccc(S(=O)(=O)N2CCCN(S(=O)(=O)c3ccc4ccccc4c3)CC2)cc1,inactive,
CN(/N=C\c1ccc(O)c(O)c1)c1nc(-c2ccccc2)cc(-c2ccccc2)n1,"inconclusive: 39.8 µM [inhibitor, single point]",
Cc1c(C(=O)OCCOc2ccccc2)[nH]c2c1C(=O)CCC2,"inconclusive: 12.5 µM [inhibitor, partial curve]",
COc1ccc(/C=N/NC2=NS(=O)(=O)c3ccccc32)cc1OC(C)=O,inactive,
Cc1ccc(S(=O)(=O)NNC(=O)c2cccc(O)c2)cc1,"inconclusive: 31.4 µM [inhibitor, single point]",
COc1ccc(OC)c2sc(NNC(=O)COc3ccccc3)nc12,"inconclusive: 24.9 µM [inhibitor, single point]",
CCOC(=O)c1oc2c(O)c(O)ccc2c(=O)c1-c1nncn1-c1ccccc1,active: 35.5 µM,

SMILES,Potency,"activity change, negative = inhibition"
O=C(Nc1cccc(-c2nc3ccccc3s2)c1)c1ccc2c(c1)OCO2,inactive,
CN(C)c1ccc(/C=N/NC(=O)c2ccccc2O)o1,"inconclusive: 11.2 µM [inhibitor, partial curve]",
COc1cc2c(cc1OC)C1O[C@](c3ccsc3)(C2)Oc2cc(-c3ccccc3)oc(=O)c21,,inactive: 11.9% [at 15.3 µM]
CC(C)Oc1ccc(CCc2n[nH]c(=S)n2Cc2ccccc2)cc1,"inconclusive: 8.91 µM [inhibitor, full curve]",
C=CCc1cc(/C=C2/NC(=O)NC2=O)cc(OCC)c1O,"inconclusive: 24.9 µM [inhibitor, partial curve]",
CCCC1=C(C(=O)OCC)C(c2ccc(OC)c(C)c2OC)C(C#N)=C(N)O1 (stereo unspecified),"inconclusive: 39.8 µM [inhibitor, single point]",
Oc1[nH]c2ccccc2c1/C=N/N1CCCCC1,"inconclusive: 12.6 µM [inhibitor, partial curve]",
O=C(NNS(=O)(=O)c1ccccc1[N+](=O)[O-])c1ccc(O)cc1,"inconclusive: 35.5 µM [activator, single point]",
O=S(=O)(NCc1ccc2c(c1)OCO2)c1cccc2cccnc12,,inconclusive: 30.4% [activator]
COc1cc(C2/C(=C(/O)c3ccc(F)cc3)C(=O)C(=O)N2CCCC(=O)O)ccc1O (stereo unspecified),"inconclusive: 39.8 µM [inhibitor, single point]",
CN(C)c1ccc(CN(C(=O)COc2ccc(F)cc2)C2CCS(=O)(=O)C2)cc1 (stereo unspecified),"inconclusive: 12.5 µM [inhibitor, partial curve]",
Cc1cc(C)cc(C(=O)Nc2cc(C(F)(F)F)ccc2N2CCN(c3ccccc3)CC2)c1,"inconclusive: 35.5 µM [inhibitor, partial curve]",
Cc1ccccc1Nc1c(-c2ccsc2)nc2c(C)cccn12,"inconclusive: 5.01 µM [inhibitor, full curve]",
CC(=O)NNc1cc(C)nc(N)n1,"inconclusive: 28.2 µM [inhibitor, single point]",
CCOC(=O)c1c2n(c3ccc(O)cc13)CCCCC2,"inconclusive: 11.1 µM [inhibitor, partial curve]",
CN1C(=S)SC(/[N+]([O-])=C\c2ccccc2)C1(C)C (stereo unspecified),"inconclusive: 31.4 µM [inhibitor, partial curve]",
Cc1ccc(S(=O)(=O)NNC(=S)Nc2c(Cl)cccc2Cl)cc1,"inconclusive: 12.5 µM [inhibitor, partial curve]",
COc1ccc(CNc2ccc(C)c(C)c2)c(OC)c1OC,"inconclusive: 39.5 µM [inhibitor, single point]",
CCCCn1c(-c2ccsc2)nc2c1c(=O)[nH]c(=O)n2CCC,inactive,
CCc1ccc(OCc2nc(-c3ccccn3)no2)c(Br)c1,inactive,
COc1ccc(C2NC(=O)C(C#N)=C(S)N2c2ccc(C)cc2)cc1OC (stereo unspecified),"inconclusive: 35.5 µM [inhibitor, partial curve, poor fit]",
N#Cc1c(NC(=O)/C=C/C(=O)O)sc2c1CCN(Cc1ccccc1)C2,"inconclusive: 50.1 µM [activator, single point]",
Cc1nc2nc(C)c(CCC(=O)NCCCN3CCN(c4cccc(Cl)c4)CC3)c(C)n2n1,,inconclusive: 32.7% [activator]
COc1ccc(Cl)cc1Nc1ncnc2c1nc1n2CCCC1,inactive,

SMILES,Potency,"activity change, negative = inhibition"
CC/C(=N\O)c1ccc(O)c(OC)c1,"inconclusive: 28 µM [inhibitor, partial curve]",
CC1=NNC(=O)C1CC(=O)N/N=C/c1cccs1 (stereo unspecified),"inconclusive: 22.4 µM [inhibitor, partial curve]",
O=C(N/N=C/c1sc(=O)[nH]c1-[n+]1ccc2ccccc2c1)c1ccccc1[O-],"inconclusive: 50.1 µM [inhibitor, single point]",
CN1C(=S)SC(C)(NO)C1(C)C (stereo unspecified),"inconclusive: 22.4 µM [inhibitor, single point]",
Oc1ccc(-c2csc(-c3cccnc3)n2)cc1O,active: 7.08 µM,
O=C1/C(=C/Nc2ccc3c(c2)OCO3)CCc2ccccc21,"inconclusive: 3.95 µM [inhibitor, partial curve]",
COc1ccc(/C=N/N2CCN(C)CC2)cc1O,"inconclusive: 3.16 µM [inhibitor, full curve]",
Cc1ccccc1CNC(=O)CCCn1nc(C)c2sc3ccccc3c2c1=O,inactive,
O=C(c1ccc(S(=O)(=O)N2CCCCCC2)cc1)N(c1ccccn1)C1CCCCC1,inactive,
NC1=NN(c2cccc(C(=O)O)c2)C(=O)C1,"inconclusive: 22.4 µM [inhibitor, single point]",
COC(=O)c1ccccc1NCc1cc(=O)oc2cc(O)c(O)cc12,"inconclusive: 3.55 µM [inhibitor, partial curve]",
C/C(=N\N1CCN(C)CC1)c1ccc(OC(F)F)cc1,"inconclusive: 31.6 µM [inhibitor, partial curve]",
Cc1[nH][nH]c(=O)c1C(c1ccc(-c2ccc(Cl)cc2)o1)c1c(C)[nH][nH]c1=O,"inconclusive: 22.2 µM [inhibitor, single point]",
Nc1nc(N2CCOCC2)n[nH]1,"inconclusive: 5.01 µM [inhibitor, full curve]",
CCC(=O)N1CCc2cc(S(=O)(=O)CCC(=O)N3CCc4ccccc4C3)ccc21,inactive,
Brc1csc(/C=N/Nc2nc3ccccc3s2)c1,"inconclusive: 15.8 µM [inhibitor, partial curve]",
COc1cc(/C=N/NC(=O)NC2CCCCC2)ccc1O,active: 25.1 µM,
Nc1nonc1C(=O)N/N=C/c1ccc(-c2ccc(Cl)c(C(=O)O)c2)o1,inactive,
Cc1[nH]n(-c2ccc(C(=O)O)cc2)c(=O)c1CCO,"inconclusive: 28.2 µM [inhibitor, partial curve]",
COc1ccc2cc(S(=O)(=O)c3ccccc3)c(=O)oc2c1,inactive,
CC1(C)Cc2c(sc3ncnc(NNC(=S)NCc4ccccc4)c23)CO1,"inconclusive: 25.1 µM [inhibitor, partial curve]",
CCOc1ccc(-c2csc(-c3c(N)c(C(=O)c4ccc5c(c4)OCO5)n4ccccc34)n2)cc1,inactive,
CCOC(=O)C1=C(c2ccccc2)NC(=O)NC1c1cc(Br)c(O)c(OC)c1 (stereo unspecified),"inconclusive: 9.92 µM [inhibitor, partial curve]",
